No constants are given. Whether binding was seen depends on the method and setting. In cells and extracts the contact can be indirect. Some binding calls cover weakened binding; strength is not graded here.

Chains of the proteins cited; added tags and fusions are not shown. Lines headed by an entry give the natural chain unless they say otherwise; changes in a name come on top. A line that says so, or that is headed by a name, gives the form on record, which may keep a tag or linker.
UniProt O00472: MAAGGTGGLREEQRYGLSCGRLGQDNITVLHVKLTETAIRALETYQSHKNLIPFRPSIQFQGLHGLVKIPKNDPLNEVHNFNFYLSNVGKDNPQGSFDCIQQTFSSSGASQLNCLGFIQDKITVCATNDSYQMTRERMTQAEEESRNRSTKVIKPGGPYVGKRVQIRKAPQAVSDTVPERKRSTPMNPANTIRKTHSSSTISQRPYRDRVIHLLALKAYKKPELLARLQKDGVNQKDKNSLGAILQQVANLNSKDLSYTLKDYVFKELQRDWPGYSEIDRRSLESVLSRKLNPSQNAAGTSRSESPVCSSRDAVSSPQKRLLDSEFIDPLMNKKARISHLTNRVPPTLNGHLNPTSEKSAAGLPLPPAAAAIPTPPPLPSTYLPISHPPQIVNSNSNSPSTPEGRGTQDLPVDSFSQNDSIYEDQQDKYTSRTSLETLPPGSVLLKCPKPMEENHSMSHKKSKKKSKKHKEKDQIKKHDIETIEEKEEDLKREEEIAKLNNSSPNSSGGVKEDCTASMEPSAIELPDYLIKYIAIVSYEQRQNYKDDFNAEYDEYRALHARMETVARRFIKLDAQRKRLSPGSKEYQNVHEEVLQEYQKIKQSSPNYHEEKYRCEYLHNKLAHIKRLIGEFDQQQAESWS
ELL2 ΔR2-myc (full-length ELL2 harboring a deletion of region R2, aa 443–474) (O00472, form named): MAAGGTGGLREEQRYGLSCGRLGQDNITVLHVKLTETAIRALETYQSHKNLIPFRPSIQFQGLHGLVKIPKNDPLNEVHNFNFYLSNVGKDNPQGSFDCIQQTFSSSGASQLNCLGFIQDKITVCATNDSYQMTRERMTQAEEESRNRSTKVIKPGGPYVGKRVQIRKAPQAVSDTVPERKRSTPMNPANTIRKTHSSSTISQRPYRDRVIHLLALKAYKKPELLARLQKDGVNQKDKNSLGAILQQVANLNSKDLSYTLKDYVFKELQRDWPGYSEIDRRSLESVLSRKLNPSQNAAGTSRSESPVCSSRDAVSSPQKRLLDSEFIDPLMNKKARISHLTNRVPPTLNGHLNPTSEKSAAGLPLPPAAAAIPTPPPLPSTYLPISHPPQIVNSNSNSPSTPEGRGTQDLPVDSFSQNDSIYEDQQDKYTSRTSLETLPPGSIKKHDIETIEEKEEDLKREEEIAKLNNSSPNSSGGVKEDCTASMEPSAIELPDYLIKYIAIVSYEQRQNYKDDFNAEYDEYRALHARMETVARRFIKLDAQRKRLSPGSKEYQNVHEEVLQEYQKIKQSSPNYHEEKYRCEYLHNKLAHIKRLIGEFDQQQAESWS

Test [1] addresses Tax-1, EF-1a-driven (pEF-1α-Tax-1) (HTLV-1) (UniProt P03409). Nature of the test: co-IP; 293T cells co-transfected, lysed after 48 h in TNE lysis buffer (10 mM NaCl, 10 mM Tris/HCl pH 7.0, 10 mM EDTA, 1% Triton X-100, 2 mM DTT); precipitation with anti-Tax antibodies overnight at 4 °C, protein G magnetic beads; blot for ELL2.
Test [2] deals with ELL2-myc (ELL2 wildtype, transcription elongation factor for RNA polymerase II 2) (not stated (the printed UniProt ID O00472 is the human entry)) (UniProt O00472). The experiment in a line: co-IP; 293T cells co-transfected, lysed after 48 h in TNE lysis buffer; precipitation with anti-ELL2 antibodies overnight at 4 °C, protein G magnetic beads; blot for Tax-1 or FLAG.
The target of test [3] is endogenous ELL2 (human (endogenous in 293T)) (UniProt O00472). Described as above.
The target of test [4] is FLAG-Tax-WT (pCAG-FLAG-Tax-WT) (HTLV-1) (UniProt P03409). Nature of the test: co-IP; 293T cells co-transfected, lysed after 48 h in TNE lysis buffer; precipitation with anti-FLAG antibodies overnight at 4 °C, protein G magnetic beads; blot for ELL2.
Test [5] concerns the target Tax-1 wildtype (Tax-WT), SV40-driven pSG-Tax-WT (HTLV-1) (UniProt P03409). The experiment in a line: co-IP; 293T cells co-transfected, lysed after 48 h in TNE lysis buffer (10 mM NaCl, 10 mM Tris/HCl pH 7.0, 10 mM EDTA, 1% Triton X-100, 2 mM DTT); precipitation with anti-Tax antibodies overnight at 4 °C, protein G magnetic beads; blot for ELL2.
The target of test [6] is His-tagged version of Tax-1 (Tax-His) (HTLV-1) (UniProt P03409). Described as above.

Turning to “ELL2-C-myc (aa 353–640; R2 and R3) (from UniProt O00472 353-640) (domain or fragment)”, the binding result in test [1] is “binds”.

In the case of “FLAG-Tax-WT (pCAG-FLAG-Tax-WT) (from UniProt P03409 1-353)”, in test [2], the binding entry was “binds”.

Turning to “Tax-1 wildtype (Tax-WT), SV40-driven pSG-Tax-WT (from UniProt P03409 1-353)”, the binding result in test [2] was “binds”; in test [3] it was “binds weakly”. “ELL2-N-myc (aa 1–515; R1 and R2) (from UniProt O00472 1-515) (domain or fragment)”: the binding entry in test [1] is given as “binds”. Regarding “ELL2-Met186-myc (aa 186–640; parts of R1, R2, and R3) (from UniProt O00472 186-640) (domain or fragment)”, the binding result in test [1] is “binds”. For “ELL2-myc (ELL2 wildtype, transcription elongation factor for RNA polymerase II 2) (from UniProt O00472 1-640)”, the binding entry in test [4], in test [5], in test [6] and in test [1] was “binds” throughout. Regarding “ELL2-R2-myc (aa 353–515) (from UniProt O00472 353-515) (domain or fragment)”, the binding result in test [1] is listed as “no binding”. Turning to “ELL2-R3-myc (aa 515–640) (from UniProt O00472 515-640) (domain or fragment)”, in test [1], the binding entry was “binds”. With “ELL2-R1-myc (aa 1–353) (from UniProt O00472 1-353) (domain or fragment)”, the binding result in test [1] was “binds”. For the substance “His-tagged version of Tax-1 (Tax-His) (from UniProt P03409 1-353)”, the binding entry in test [2] is given as “binds”. Take “ELL2 ΔR2-myc (full-length ELL2 harboring a deletion of region R2, aa 443–474) (from UniProt O00472 1-640)”: the binding entry in test [1] is reported as “binds”.

Source of the values: PMC8705299.
